This passage reports self-cleavage results from the RNAGym collection of RNA variant scans (doi:10.1093/nar/gkz1192).

B1: CPEB3 Ribozyme (parent)
chain: UAACAGGGGGCCACAGCAGAAGCGUUCACGUCGCAGCCCCUGUCAGAUUCUGGUGAAUCUGCGAAUUCUGCUGUAUAUCUC

Read counts are not given, so values of variants with three or more changes are uncertain.

Variants of B1 are the subject of this data set. The data set can be described thus: self-cleavage, relative activity (ratio to wild type); higher = more cleavage; in vitro, sequencing. Put shortly:
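Relative activity compares each variant's cleaved/total read fraction with that of the unmutated ribozyme. To get these fractions, barcoded CPEB3 ribozyme libraries from rounds of error-prone PCR were transcribed with T7 RNA polymerase for 5 hours at 37°C and then given 15 min of DNase I treatment before EDTA was added. The RNAs were reverse transcribed with template switching and sequenced on Illumina, and DNA sequencing linked barcodes to variants. A minimum of 5 reads applied, and three batches were averaged.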
With C14U U54C A64G, the self-cleavage turned out to be 1.17. For C14A U25C A57G, the self-cleavage turned out to be 0.21. In the case of C14U A20G C39A U49A A57G, the self-cleavage came out at 0.05. As for C14U U25C C59U U69C U72A, the self-cleavage came to 0.12. A15C U25C U26A: the self-cleavage is 0.33.

As for A13U U31C U67C, the self-cleavage was found to be 0.28. As for A13U U41A A56G, the self-cleavage is 0.09.

With A13U U43C A64G A65G, the self-cleavage was found to be 0.19. Consider C14U C17U U41G U51G A57G U76C, for which the self-cleavage was determined as 0.04.

C14U U43C U60A U74C U78A: the self-cleavage amounted to 0.45. As for A15G A18C U72C, the self-cleavage worked out at 0.87. As for A15C A35U U54C U72C A77G, the figure is 0.71; as for A13U U41C A47G C59U U76C, 1.07.

As for A13U U41A U58C C71U A75U, the self-cleavage stood at 0.06.

As for C14U U26C U43C A45U A64G, the self-cleavage was 0.11.

In the case of A15C U25C G61A U74C A75U, the self-cleavage was determined as 0.27. Turning to C14A U51C U58C U66C U78C, the self-cleavage was determined as 0.25. With C14U U48C A56G U72A, the self-cleavage stood at 0.53. Take C14A A18U U41C A47G U49C U67A: the self-cleavage is 0.14. On to A13U U31G U41G U43C U51A A56G G61A, for which the self-cleavage turned out to be 0.12. As to C14A U54G U67C, the self-cleavage was 0.4. On to A13U U60A U72A U80A, for which the self-cleavage was 0.35. Turning to C14A G30U U41C U49A U67C U80C, the self-cleavage stood at 0.17.

Consider C14U G24A U51C U66C, for which the self-cleavage came out at 0.17. For the variant A15C A35C U72C, the self-cleavage stood at 1.12.

Regarding A15G A18G A20U U72C, the self-cleavage was found to be 0.07. For the variant A15C A28U G30U G70C U74A, the self-cleavage came out at 0.08.

In the case of C14U U26C G36U U72C, the self-cleavage was found to be 0.06. With C14A A35U U41A U43C A56G, the self-cleavage came to 0.18.

Regarding C14G A15G G30U U43C U49C U80C, the self-cleavage amounted to 0.19. As to C14U G19C U67A U78A U80C, the self-cleavage was found to be 0.2. As for C14A A20G U69C U74C, the figure is 0.41. In the case of A15C A28U U41A U43C U49C U58C, the self-cleavage was 0.18. Take C14U G19C A28G U69C: the self-cleavage worked out at 0.12. Regarding A15C C38U U58C U76C, the self-cleavage came out at 0.14. A13U U60C U80C: the self-cleavage is 0.41.

A15C A21G A64U: the self-cleavage was determined as 0.1.

As for A13U U49C A56G U78C, the self-cleavage was 1.06.

For A13U U31A G33A, the self-cleavage was 0.19. Regarding C14U A15U A20G, the self-cleavage came out at 0.54. As for A13U U48C U78C, the self-cleavage was 0.59. As to A15C C23U U26C U31A, the self-cleavage came to 0.23.

With A13U U41C A75G U78A, the self-cleavage amounted to 1.05. On to A15C A18G G33A U43A A56U U60C, for which the self-cleavage was 0.08.

For the variant C14U A21G U60C U69C, the self-cleavage stood at 0.18. Consider A15G A18C U43C A45U A47U, for which the self-cleavage turned out to be 0.21. On to A13U U51C U54G, for which the self-cleavage came out at 0.87. In the case of C14U U25G A35U A75G it was 0.18; in that of C14U U25A U72C, 0.38; in that of A13U U41A U49A C62A U80C, 0.25. In the case of A13U U67C C68U, the self-cleavage was found to be 0.22. Turning to C14A G33A A35U U54C A64C U78C, the self-cleavage amounted to 0.05. Take C14A A18U A47G: the self-cleavage came out at 0.31. As to C14U U26C C29G A35G U72A, the self-cleavage came to 0.11. As for C14A A18G A35U U60C, the figure is 0.21; as for C14A A28G G42A A45U A56G G61A, 0.04; as for C14U G63A U72C U74C, 1.2. As to A15C A18G U54C, the self-cleavage was found to be 0.21. In the case of C14G A35G U80C it was 1.29. In the case of A13U U43A A56U A64G it was 0.63. Take A15G A18G A28G: the self-cleavage amounted to 0.36. A13U U41C U51A U69C: the self-cleavage amounted to 0.57.

For A13U U41C C44U U76A, the self-cleavage amounted to 0.26. Take C14U A18G A35U: the self-cleavage is 0.23. For C14U U60A U69C U72C U74A A75G, the self-cleavage came to 0.3. Take A13U U41G C68U A77U: the self-cleavage stood at 0.09.

For A15C A28U A45G U58A U72C U78C, the self-cleavage turned out to be 0.16.

Take C14U A21G A57G G70A: the self-cleavage is 0.11. As for A13U U43C U54A, the figure is 0.91. A15C C23U U26C C39G A47U U69G: the self-cleavage was determined as 0.04. Take A13U U43C U66C C68U: the self-cleavage was found to be 0.14. Take A15G A18G A35G U48A G61A U67C: the self-cleavage worked out at 0.06.

As for C14A U48C U54A U80C, the self-cleavage was found to be 0.92. In the case of A13U U41C U51C A56G U60C U78A, the self-cleavage came to 0.28. As for A13U U31C U43C U49C U69C, the self-cleavage stood at 0.06. A15C U31C U80A: the self-cleavage is 0.59.

Take C14U U25A U69G: the self-cleavage was determined as 0.13. On to A13U U43A U58C U60A A75G, for which the self-cleavage was 0.4.

For C14A A21G A35G U43C A45U A56G, the self-cleavage was 0.12. Consider A15C A64U U67C, for which the self-cleavage stood at 0.21. Consider C14U A20G U26A C29U U58C, for which the self-cleavage was 0.12. As for A13U U48C U60A, the figure is 0.14; as for A13U U41C A57G, 1.18; as for C14U A20G U58A U67C, 0.28.
